{"source": "the supplement of paper PMC8728848", "binders": {"B1": {"name": "BDCA-2 (Homo sapiens), Q8WTT0 (protein)", "chain": "MVPEEEPQDREKGLWWFQLKVWSMAVVSILLLSVCFTVSSVVPHNFMYSKTVKRLSKLREYQQYHPSLTCVMEGKDIEDWSCCPTPWTSFQSSCYFISTGMQSWTKSQKNCSVMGADLVVINTREEQDFIIQNLKRNSSYFLGLSDPGGRRHWQWVDQTPYNENVTFWHSGEPNNLDERCAIINFRSSEEWGWNDIHCHVPQKSICKMKKIYI"}}, "test_in_all_cases": "glycan array binding signal (z-score within array); higher = stronger binding", "conditions_in_all_cases": "glycan notation: IUPAC condensed, linker removed", "key": {"[1]": {"molecular_target": "Fuc(a1-2)Gal(b1-4)GlcNAc(b1-3)Gal(b1-4)GlcNAc(b1-2)Man(a1-3)[Fuc(a1-2)Gal(b1-4)GlcNAc(b1-3)Gal(b1-4)GlcNAc(b1-2)Man(a1-6)]Man(b1-4)GlcNAc(b1-4)GlcNAc", "summary_of_the_method": "(§1)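 Glycan array data were curated from 3228 arrays in the Consortium for Functional Glycomics database and kept only where the protein sequence was available. Glycan names were converted to IUPAC-condensed notation, and columns mapping to the same glycan were averaged. The binding signal is a within-array Z-score, averaged across arrays of the same protein sequence at different concentrations or buffers and across linkers. Negative Z-scores can be read as non-binding.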"}, "[2]": {"molecular_target": "Fuc(a1-2)Gal(b1-4)GlcNAc(b1-3)Gal(b1-4)GlcNAc(b1-3)Gal(b1-4)GlcNAc", "summary_of_the_method": "as §1"}, "[3]": {"molecular_target": "Fuc(a1-2)Gal(b1-4)GlcNAc(b1-3)GalNAc", "summary_of_the_method": "as §1"}, "[4]": {"molecular_target": "Fuc(a1-2)Gal(b1-4)GlcNAc(b1-3)[Fuc(a1-2)Gal(b1-4)GlcNAc(b1-6)]GalNAc", "summary_of_the_method": "as §1"}, "[5]": {"molecular_target": "Fuc(a1-2)Gal(b1-4)GlcNAc(b1-3)[Fuc(a1-3)[Gal(b1-4)]GlcNAc(b1-6)]Gal(b1-4)Glc", "summary_of_the_method": "as §1"}, "[6]": {"molecular_target": "Fuc(a1-2)Gal(b1-4)GlcNAc(b1-6)GalNAc", "summary_of_the_method": "as §1"}, "[7]": {"molecular_target": "Fuc(a1-2)Gal(b1-4)GlcNAc6S", "summary_of_the_method": "as §1"}, "[8]": {"molecular_target": "Fuc(a1-2)Gal(b1-4)[Fuc(a1-3)]GlcNAc", "summary_of_the_method": "as §1"}, "[9]": {"molecular_target": "Fuc(a1-2)Gal(b1-4)[Fuc(a1-3)]GlcNAc(b1-2)Man(a1-3)[Fuc(a1-2)Gal(b1-4)[Fuc(a1-3)]GlcNAc(b1-2)Man(a1-6)]Man(b1-4)GlcNAc(b1-4)[Fuc(a1-6)]GlcNAc", "summary_of_the_method": "as §1"}, "[10]": {"molecular_target": "Fuc(a1-2)Gal(b1-4)[Fuc(a1-3)]GlcNAc(b1-2)[Fuc(a1-2)Gal(b1-4)[Fuc(a1-3)]GlcNAc(b1-4)]Man(a1-3)[Fuc(a1-2)Gal(b1-4)[Fuc(a1-3)]GlcNAc(b1-2)Man(a1-6)]Man(b1-4)GlcNAc(b1-4)GlcNAc", "summary_of_the_method": "as §1"}, "[11]": {"molecular_target": "Fuc(a1-2)Gal(b1-4)[Fuc(a1-3)]GlcNAc(b1-3)Gal(b1-4)[Fuc(a1-3)]GlcNAc", "summary_of_the_method": "as §1"}, "[12]": {"molecular_target": "Fuc(a1-2)Gal(b1-4)[Fuc(a1-3)]GlcNAc(b1-3)Gal(b1-4)[Fuc(a1-3)]GlcNAc(b1-3)Gal(b1-4)[Fuc(a1-3)]GlcNAc", "summary_of_the_method": "as §1"}, "[13]": {"molecular_target": "Fuc(a1-2)Gal(b1-4)[Fuc(a1-3)]GlcNAc(b1-3)GalNAc", "summary_of_the_method": "as §1"}, "[14]": {"molecular_target": "Fuc(a1-2)Gal(b1-4)[Fuc(a1-3)]GlcNAc(b1-3)[Neu5Ac(a2-6)Gal(b1-4)GlcNAc(b1-6)]Gal(b1-4)Glc", "summary_of_the_method": "as §1"}, "[15]": {"molecular_target": "Fuc(a1-2)Gal3S(b1-4)GlcNAc", "summary_of_the_method": "as §1"}, "[16]": {"molecular_target": "Fuc(a1-2)Gal6S(b1-3)GlcNAc", "summary_of_the_method": "as §1"}, "[17]": {"molecular_target": "Fuc(a1-2)Gal6S(b1-3)GlcNAc6S", "summary_of_the_method": "as §1"}, "Fuc(a1-2)Gal6S(b1-4)Glc": {"molecular_target": "Fuc(a1-2)Gal6S(b1-4)Glc", "summary_of_the_method": "as §1"}, "[18]": {"molecular_target": "Fuc(a1-2)Gal6S(b1-4)Glc6S", "summary_of_the_method": "as §1"}, "Fuc(a1-2)GlcNAc": {"molecular_target": "Fuc(a1-2)GlcNAc", "summary_of_the_method": "as §1"}, "Fuc(a1-2)[Gal(a1-3)]Gal": {"molecular_target": "Fuc(a1-2)[Gal(a1-3)]Gal", "summary_of_the_method": "as §1"}, "[19]": {"molecular_target": "Fuc(a1-2)[Gal(a1-3)]Gal(b1-3)GalNAc", "summary_of_the_method": "as §1"}, "[20]": {"molecular_target": "Fuc(a1-2)[Gal(a1-3)]Gal(b1-3)GalNAc(b1-3)Gal(a1-4)Gal(b1-4)Glc", "summary_of_the_method": "as §1"}, "[21]": {"molecular_target": "Fuc(a1-2)[Gal(a1-3)]Gal(b1-3)GlcNAc", "summary_of_the_method": "as §1"}, "[22]": {"molecular_target": "Fuc(a1-2)[Gal(a1-3)]Gal(b1-3)GlcNAc(b1-2)Man(a1-3)[Fuc(a1-2)[Gal(a1-3)]Gal(b1-3)GlcNAc(b1-2)Man(a1-6)]Man(b1-4)GlcNAc(b1-4)GlcNAc", "summary_of_the_method": "as §1"}, "[23]": {"molecular_target": "Fuc(a1-2)[Gal(a1-3)]Gal(b1-3)GlcNAc(b1-2)Man(a1-3)[Fuc(a1-2)[Gal(a1-3)]Gal(b1-3)GlcNAc(b1-2)Man(a1-6)]Man(b1-4)GlcNAc(b1-4)[Fuc(a1-6)]GlcNAc", "summary_of_the_method": "as §1"}, "[24]": {"molecular_target": "Fuc(a1-2)[Gal(a1-3)]Gal(b1-3)GlcNAc(b1-3)GalNAc", "summary_of_the_method": "as §1"}, "[25]": {"molecular_target": "Fuc(a1-2)[Gal(a1-3)]Gal(b1-3)GlcNAc(b1-6)GalNAc", "summary_of_the_method": "as §1"}, "[26]": {"molecular_target": "Fuc(a1-2)[Gal(a1-3)]Gal(b1-4)Glc", "summary_of_the_method": "as §1"}, "[27]": {"molecular_target": "Fuc(a1-2)[Gal(a1-3)]Gal(b1-4)GlcNAc", "summary_of_the_method": "as §1"}}, "note": "The list shows a part of the results."}
{"binder": "B1", "values": [{"measurement": "glycan array binding signal (z-score)", "setting": "[1]", "result": -0.144}, {"measurement": "glycan array binding signal (z-score)", "setting": "[2]", "result": -0.307}, {"measurement": "glycan array binding signal (z-score)", "setting": "[3]", "result": -0.147}, {"measurement": "glycan array binding signal (z-score)", "setting": "[4]", "result": -0.079}, {"measurement": "glycan array binding signal (z-score)", "setting": "[5]", "result": -0.171}, {"measurement": "glycan array binding signal (z-score)", "setting": "[6]", "result": -0.153}, {"measurement": "glycan array binding signal (z-score)", "setting": "[7]", "result": -0.165}, {"measurement": "glycan array binding signal (z-score)", "setting": "[8]", "result": -0.074}, {"measurement": "glycan array binding signal (z-score)", "setting": "[9]", "result": -0.13}, {"measurement": "glycan array binding signal (z-score)", "setting": "[10]", "result": -0.137}, {"measurement": "glycan array binding signal (z-score)", "setting": "[11]", "result": -0.223}, {"measurement": "glycan array binding signal (z-score)", "setting": "[12]", "result": -0.192}, {"measurement": "glycan array binding signal (z-score)", "setting": "[13]", "result": -0.077}, {"measurement": "glycan array binding signal (z-score)", "setting": "[14]", "result": -0.177}, {"measurement": "glycan array binding signal (z-score)", "setting": "[15]", "result": -0.178}, {"measurement": "glycan array binding signal (z-score)", "setting": "[16]", "result": -0.143}, {"measurement": "glycan array binding signal (z-score)", "setting": "[17]", "result": 0.012}, {"measurement": "glycan array binding signal (z-score)", "setting": "Fuc(a1-2)Gal6S(b1-4)Glc", "result": -0.175}, {"measurement": "glycan array binding signal (z-score)", "setting": "[18]", "result": -0.178}, {"measurement": "glycan array binding signal (z-score)", "setting": "Fuc(a1-2)GlcNAc", "result": -0.409}, {"measurement": "glycan array binding signal (z-score)", "setting": "Fuc(a1-2)[Gal(a1-3)]Gal", "result": -0.099}, {"measurement": "glycan array binding signal (z-score)", "setting": "[19]", "result": -0.106}, {"measurement": "glycan array binding signal (z-score)", "setting": "[20]", "result": -0.11}, {"measurement": "glycan array binding signal (z-score)", "setting": "[21]", "result": -0.03}, {"measurement": "glycan array binding signal (z-score)", "setting": "[22]", "result": -0.15}, {"measurement": "glycan array binding signal (z-score)", "setting": "[23]", "result": -0.13}, {"measurement": "glycan array binding signal (z-score)", "setting": "[24]", "result": -0.103}, {"measurement": "glycan array binding signal (z-score)", "setting": "[25]", "result": -0.161}, {"measurement": "glycan array binding signal (z-score)", "setting": "[26]", "result": -0.113}, {"measurement": "glycan array binding signal (z-score)", "setting": "[27]", "result": -0.008}]}
